# Laboratory results as given in PubChem BioAssay AID1347120 (National Center for Advancing Translational Sciences (NCATS), 2019).
# In all, about 390,000 compounds went through this assay and about 930 (0.24%) were called active. Inconclusive means that the source gave no clear call. Such entries were picked first, then a sample of the others. Calls come from the whole dose curve; as a rule, active = well fitted activation curve with a large enough effect; inconclusive = small, poorly fitted or top-dose-only effect; inactive = no such curve, though single readings can be large or run the other way. Potencies of inconclusive entries are doubtful fits and often do not repeat.
# Experiment: qHTS for Suppressors of FUS Proteinopathy: Primary screen using FUS-linked yeast assay; note: nearly all actives have a fitted effect of over 55% in size;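 for growth rescue (activation): plate controls were DMSO vehicle for no effect and reference control for full effect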
# Settings: S. cerevisiae FUS-expressing, OD600, 24 h; Potency: growth rescue; growth rescue (activation): at 76.6 µM (top of the series)
# Method in brief: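 Cultures pregrown in 2.5% raffinose medium are shifted to minimal medium containing 2% galactose to express toxic FUS. Compounds are tested at several concentrations. After 24hr at 30C, growth is quantified at 600 nm absorbance.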
# Potency is the fitted concentration of half-maximal effect; tags give direction and shape of the fitted curve.
Compound,Potency,growth rescue (activation)
COc1ccc(NC(=O)CN(C)C(=O)c2cccc(S(=O)(=O)N3CC4(C)CC3CC(C)(C)C4)c2)cc1 (stereo unspecified),"inconclusive: 35.5 µM [activator, single point]",–
CN(C)S(=O)(=O)c1ccc2nc(NC(=O)c3cccnc3)sc2c1,"inconclusive: 50.1 µM [activator, single point]",–
C#Cc1ccc(C(=O)Nc2cc(C(N)=O)ccc2N2CCOCC2)cc1,"inconclusive: 12.6 µM [activator, partial curve, poor fit]",–
COc1cc(C(O)c2nc(-c3cccc(C(F)(F)F)c3)cs2)ccc1F (stereo unspecified),–,inactive: 33.8%
COc1ccc([C@H]2OC(=O)C[C@@H]2C(=O)N2CCN(c3ccccc3F)CC2)cc1OC,–,inactive: 19.4%
CC(=O)Nc1cccc(NC(=O)c2cc(-c3cccnc3)nc3ccc(Br)cc23)c1,"inconclusive: 35.5 µM [activator, partial curve]",–
C[n+]1ccn(CC(=O)c2cccs2)c1,–,inactive: -2.77%
CC(C)OCCCN(Cc1ccco1)C(=O)c1cc2c(s1)-c1ccccc1OC2,"inconclusive: 31.6 µM [activator, single point]",–
O=C(C[n+]1ccc2c(c1)nnn2-c1ccccc1)c1ccc(Cl)cc1,"inconclusive: 10 µM [activator, partial curve, poor fit]",–
O=C1CC2(CCN(C(=O)c3ccc([N+](=O)[O-])cc3)CC2)Oc2ccccc21,–,inactive: 3.35%
O=C(NCc1cccc(Br)c1)c1cc(-c2ccccc2)nn1CC1CC(c2cccc([N+](=O)[O-])c2)=NO1 (stereo unspecified),active: 31.6 µM,–
CC1CN(CC(=O)Nc2cc(S(=O)(=O)N3CCCC3)ccc2Cl)CC(C)O1 (stereo unspecified),"inconclusive: 7.08 µM [activator, partial curve]",–
Cc1cccnc1CN1CCN(C(=O)c2cc(COc3ccc4ncccc4c3)on2)CC1,–,inactive: 13.2%
CC(=O)c1cccc(N2C(=NC(=O)C3CCCCC3)SC3CS(=O)(=O)CC32)c1 (stereo unspecified),"inconclusive: 14.1 µM [activator, partial curve, poor fit]",–
CC(=O)NCCc1nc2cc(NC(=O)c3ccccc3C)ccc2n1C,–,inactive: -37.3%
Cc1ccc(Cn2nnc3c(=O)[nH]c(C4CCN(S(=O)(=O)/C=C/c5ccccc5)CC4)nc32)cc1,"inconclusive: 50.1 µM [activator, single point]",–
COc1ccc(S(=O)(=O)N(CC(=O)NCc2ccccc2OC)c2ccc(C)cc2)cc1,"inconclusive: 25.1 µM [activator, single point]",–
Cc1cccc(N2CCN(S(=O)(=O)c3ccc4c(c3)CCCN4C(=O)C3CCC3)CC2)c1C,"inconclusive: 22.4 µM [activator, partial curve, poor fit]",–
Cc1ccc(Cl)cc1N1CCN(C(=O)CSc2nnc3n2C(C)(C)Cc2ccccc2-3)CC1,–,inactive: 56.2%
O=C(COC(=O)c1cc(Br)ccc1O)Nc1ccc2c(c1)OCO2,"inconclusive: 17.8 µM [activator, partial curve, poor fit]",–
Cc1nn(-c2nc3ccccc3n2Cc2ccccc2)c2c1C(=O)CC(C)(C)C2,"inconclusive: 35.5 µM [activator, partial curve, poor fit]",–

Compound,Potency,growth rescue (activation)
CCN(C(=O)COC(=O)C1CCN(S(=O)(=O)c2ccc(C)c(C)c2)CC1)C1CCCCC1,"inconclusive: 25.1 µM [activator, single point]",–
C=CCNC(=O)c1cn(CC)c2cc(N3CCN(C(=O)c4ccco4)CC3)c(F)cc2c1=O,"inconclusive: 50.1 µM [activator, single point]",–
O=C(Nc1ccc2oc(-c3cccc4ccccc34)nc2c1)c1ncn[nH]1,"inconclusive: 17.8 µM [activator, partial curve, poor fit]",–
COC(=O)C1=C(C(=O)OC)[C@@H]2N(C)c3ccc(OC)cc3[C@@]23C[C@@H](C(=O)OC)N(C(=O)c2cc(C)oc2C)C3=N1,"inconclusive: 28.2 µM [activator, single point]",–
COc1ccc(OC)c(C2CC(=O)N3CN(c4ccccc4F)CSC3=C2C#N)c1 (stereo unspecified),"inconclusive: 50.1 µM [activator, single point]",–
COc1ccc(C2C=C(c3ccccc3)Nc3nc(NC(=O)c4ccc(C)cc4)nn32)cc1 (stereo unspecified),"inconclusive: 35.5 µM [activator, single point]",–
O=C(c1ccco1)N1CCN(CCCCN2C(=O)c3ccccc3C2=O)CC1,"inconclusive: 11.2 µM [activator, single point]",–
CCOc1cc(-c2nc(-c3ccc(-c4ccc(C)cc4)nc3OC)no2)cc(OCC)c1OCC,–,inactive: -9%
CC1NC(=O)c2cccnc2-n2c1nc1ccccc1c2=O (stereo unspecified),–,inactive: -2.4%
COc1ccc2c(=O)c(-c3cnn(-c4ccccc4)c3)c(C)oc2c1,"inconclusive: 7.94 µM [activator, partial curve]",–
CCCCOc1c(Cl)cc(C(=O)N(Cc2ccc(C)o2)C2CCS(=O)(=O)C2)cc1Cl (stereo unspecified),"inconclusive: 31.6 µM [activator, single point]",–
CCC1=NN(C(=O)c2ccccc2O)C(O)(c2ccccc2)C1 (stereo unspecified),–,inactive: 8.77%
O=C(CSc1nc(O)cc(=O)[nH]1)N1c2ccccc2Sc2ccccc21,"inconclusive: 15.8 µM [activator, partial curve, poor fit]",–
COC(=O)[C@]12C[C@H](CC(=O)NCC3CCCCC3)C(=O)N(Cc3ccc4c(c3)OCO4)C1=C[C@H](C(C)C)O[C@@H]2C1CC1,active: 14.1 µM,–
CSc1ccc(CCNc2ncnc3onc(C)c23)cc1,–,inactive: 5.3%
COc1ccc([N+](=O)[O-])cc1NC(=O)C(C)OC(=O)CC1CCCC1 (stereo unspecified),"inconclusive: 31.6 µM [activator, single point]",–
CCC(NC(=O)c1ccc2c(ccn2Cc2cccc(-c3ccc(C(=O)O)cc3)c2)c1)c1ccccc1 (stereo unspecified),"inconclusive: 31.6 µM [activator, single point]",–
CC(=O)c1cc(C#N)c(SCC(=O)OC(C)(C)C)nc1C,"inconclusive: 11.2 µM [activator, partial curve, poor fit]",–
COc1ccc2[nH]c3c(c2c1)CCN1C(=O)C(CC(=O)NCc2ccc(OC)c(OC)c2)C[C@H](C(=O)N2CCOCC2)[C@@]31CCC1CCCC1 (stereo partly specified),"inconclusive: 25.1 µM [activator, single point]",–
c1ccc(Oc2ccc(-c3ccnc4nc(N5CCN(c6ccccc6)CC5)nn34)cc2)cc1,–,inactive: -0.733%
CC(=O)Nc1ccc(S(=O)(=O)NCC(=O)OCC(=O)N2CCc3ccccc32)cc1,"inconclusive: 17.8 µM [activator, partial curve, poor fit]",–

Compound,Potency,growth rescue (activation)
Cc1ccc2c(c1)nnn2C1CCN(S(=O)(=O)c2ccc(C(=O)N(C)C3CCCCC3)cc2)CC1,–,inconclusive: 52.4% [activator]
CCCSc1ccc([C@@H]2[C@H]3C(=O)N(CC)C(=O)[C@H]3[C@]3(C(=O)OC)CCCCN23)cc1OC,"inconclusive: 22.4 µM [activator, single point]",–
CC(CC(=O)NCc1ccc(Cl)cc1)CC1=NS(=O)(=O)c2ccccc2N1 (stereo unspecified),–,inactive: -9.76%
CCN(Cc1ccccc1)Cc1cc(OC)cc(OC)c1,–,inconclusive: 56% [activator]
COc1cccc(C(=O)NC2CCCc3c2cnn3-c2ccc(C)c(C)c2)c1OC (stereo unspecified),"inconclusive: 17.8 µM [activator, partial curve]",–
N#Cc1c(NC(=O)CSc2nc(N)cc(=O)[nH]2)sc2c1CCCC2,"inconclusive: 22.4 µM [activator, partial curve, poor fit]",–
CC[C@H](C)C(C(=O)N1CCN(C(=O)OC(C)(C)C)CC1)n1cc(C(CC(C)C)NC(=O)OC(C)(C)C)nn1 (stereo partly specified),"inconclusive: 10 µM [activator, partial curve]",–
COc1ccccc1OCC(=O)N(Cc1nc(-c2ccc(Cl)cc2)no1)C(C)C,"inconclusive: 50.1 µM [activator, single point]",–
CCOC(=O)c1ccc(OCC2c3cc(OC)c(OC)cc3CCN2C(=O)Cc2ccc(F)cc2)cc1 (stereo unspecified),active: 12.6 µM,–
O=C(O)CCCN1C(=O)/C(=C/C=C/c2ccco2)SC1=S,–,inactive: 39.2%
O=S(=O)(/C=C/c1ccccc1)N1CCN(c2nc(-c3cccnc3)nc3ccccc23)CC1,"inconclusive: 5.01 µM [activator, full curve]",–
CC1=C(C)CC(C(=O)Nc2ccc3c(c2)OCO3)C(C(=O)O)C1 (stereo unspecified),–,inactive: 8.08%
CCn1c(=O)n2n(c1=O)[C@@]1(C=C3CCCC[C@H]32)N=C(NC(=O)c2ccccc2)N(Cc2ccccc2)[C@H]1Cc1ccccc1,"inconclusive: 17.8 µM [activator, partial curve, poor fit]",–
CC(=O)Nc1ccc(-c2ccnc3c2CC(C(=O)Nc2ccc(C(C)C)cc2)O3)cc1 (stereo unspecified),"inconclusive: 50.1 µM [activator, single point]",–
CCCCOCCCNC(=O)C[C@H]1C[C@@]2(C(=O)OC)C(=C[C@H](COCc3ccccc3)O[C@@H]2C)N(CCc2ccc(OC)c(OC)c2)C1=O,"inconclusive: 17.8 µM [activator, partial curve]",–
COC(=O)C1=CN(c2ccc3c(c2)OCO3)C(N)=C(C#N)C1c1ccc(-c2ccccc2)cc1 (stereo unspecified),"inconclusive: 20 µM [activator, partial curve, poor fit]",–
Cc1ccc(CN2C(=O)c3ccccc3C2C(=O)NC2CCCCCC2)cc1 (stereo unspecified),–,inactive: 9.45%
CCOc1ccccc1NC(=O)C1CCCN(S(=O)(=O)c2ccc(-n3cnnn3)cc2)C1 (stereo unspecified),–,inactive: -4.24%
O=C(Nc1ccc(Cl)c(Cl)c1)N1N=CCC1c1ccccc1 (stereo unspecified),"inconclusive: 11.2 µM [activator, partial curve, poor fit]",–
